From the supplement of paper PMC4967469
IC50 is the fitted dose that halves viability relative to control wells, and lower means more sensitive; fits outside the tested doses are given as limits. The AUC spans the tested range (256-fold, ending at the top dose) of the same fit; the more sensitive the line, the further below 1. For part of these data: A top dose marked as inferred is not printed in the source and was worked back from the curve model.

Tests used:
Assay in all cases: Viability of human cancer cell lines after 72 h of drug (GDSC screen)
Mitomycin C = compound: CO[C@@]12[C@H](COC(N)=O)C3=C(C(=O)C(C)=C(N)C3=O)N1C[C@@H]1N[C@@H]12 [Mitomycin C]; conditions: top dose 16 µM
Protocol: (§1)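 Human cancer cell lines in 384-well plates, medium with 10% serum, drug for 72 h over a 256-fold dose range (nine 2-fold or five 4-fold steps up to the top dose). Adherent lines were fixed and stained with the nucleic acid dye Syto60, suspension lines read with resazurin; signal relative to control wells, capped at 0 and 100%. One two-parameter sigmoid per drug and line, fitted in a mixed model over all curves with the slope shared within a line.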

NVP-BHG712 = compound: Cc1ccc(C(=O)Nc2cccc(C(F)(F)F)c2)cc1Nc1nc(-c2cccnc2)nc2c1cnn2C [NVP-BHG712]; conditions: top dose 10.24 µM; top dose inferred
Protocol: as §1

IOX2 = compound: O=C(O)CNC(=O)c1c(O)c2ccccc2n(Cc2ccccc2)c1=O [IOX2]; conditions: top dose 0.1 µM; top dose inferred
Protocol: as §1

Bosutinib = compound: COc1cc(Nc2c(C#N)cnc3cc(OCCCN4CCN(C)CC4)c(OC)cc23)c(Cl)cc1Cl [Bosutinib]; conditions: top dose 2 µM
Protocol: as §1

Roscovitine = compound: CC[C@H](CO)Nc1nc(NCc2ccccc2)c2ncn(C(C)C)c2n1 [Roscovitine]; conditions: top dose 16 µM; top dose inferred
Protocol: as §1

Midostaurin = compound: CO[C@@H]1[C@H](N(C)C(=O)c2ccccc2)C[C@H]2O[C@]1(C)n1c3ccccc3c3c4c(c5c6ccccc6n2c5c31)C(=O)NC4 [Midostaurin]; conditions: top dose 0.512 µM; top dose inferred
Protocol: as §1

Cell Line	AUC (Mitomycin C)	IC50 (Mitomycin C)	AUC (NVP-BHG712)	IC50 (NVP-BHG712)	AUC (IOX2)	IC50 (IOX2)	AUC (Bosutinib)	IC50 (Bosutinib)	AUC (Roscovitine)	IC50 (Roscovitine)	AUC (Midostaurin)	IC50 (Midostaurin)
LXF-289 (lung adenocarcinoma, adherent)	0.126	66.3 nM	0.94	> 10200 nM	0.985	> 100 nM	0.88	> 2000 nM	0.943	> 16000 nM	0.766	186 nM
NB-4 (acute myeloid leukaemia, suspension)	0.049	< 62.5 nM	0.242	138 nM	0.99	> 100 nM	0.846	1080 nM	0.912	15800 nM	0.916	> 512 nM
NCI-H1838 (lung adenocarcinoma, adherent)	0.387	455 nM	0.976	> 10200 nM	0.985	> 100 nM	0.942	> 2000 nM	0.948	> 16000 nM	0.974	> 512 nM
SK-N-FI (neuroblastoma, adherent)	0.829	9860 nM	0.884	> 10200 nM	0.988	> 100 nM	0.977	> 2000 nM	0.944	> 16000 nM	0.989	> 512 nM
VCaP (prostate, adherent)	0.594	1830 nM	0.917	> 10200 nM	0.985	> 100 nM	0.987	> 2000 nM	0.95	> 16000 nM	0.927	> 512 nM
NTERA-2 cl.D1 (testis, adherent)	0.028	< 62.5 nM	0.909	> 10200 nM	0.984	> 100 nM	0.971	> 2000 nM	0.88	> 16000 nM	0.756	174 nM
BE-13 (lymphoblastic leukaemia, suspension)	0.084	< 62.5 nM	0.362	273 nM	0.983	> 100 nM	0.724	514 nM	0.977	> 16000 nM	0.896	> 512 nM
NCI-H1395 (lung adenocarcinoma, adherent)	0.609	2190 nM	0.933	> 10200 nM	0.97	> 100 nM	0.956	> 2000 nM	0.947	> 16000 nM	0.978	> 512 nM
697 (lymphoblastic leukaemia, suspension)	0.032	< 62.5 nM	0.8	3860 nM	0.991	> 100 nM	0.573	190 nM	0.85	8610 nM	0.775	162 nM
DMS-79 (small cell lung carcinoma, suspension)	0.619	2240 nM	0.981	> 10200 nM	0.986	> 100 nM	0.986	> 2000 nM	0.956	> 16000 nM	0.984	> 512 nM
EB2 (Burkitt lymphoma, suspension)	0.201	146 nM	0.644	1540 nM	0.983	> 100 nM	0.99	> 2000 nM	0.986	> 16000 nM	0.957	> 512 nM
CTV-1 (acute myeloid leukaemia, suspension)	0.117	87.9 nM	0.098	47 nM	0.992	> 100 nM	0.438	87.8 nM	0.923	> 16000 nM	0.938	> 512 nM
NCI-H847 (small cell lung carcinoma, adherent)	0.372	479 nM	0.817	4380 nM	0.985	> 100 nM	0.992	> 2000 nM	0.906	14400 nM	0.924	> 512 nM
YT (lymphoid neoplasm, suspension)	0.374	476 nM	0.831	5160 nM	0.992	> 100 nM	0.992	> 2000 nM	0.987	> 16000 nM	0.852	308 nM
L-540 (Hodgkin lymphoma, suspension)	0.207	155 nM	0.931	> 10200 nM	0.982	> 100 nM	0.84	1160 nM	0.955	> 16000 nM	0.867	377 nM
KY821 (leukaemia, suspension)	0.58	1610 nM	0.968	> 10200 nM	0.991	> 100 nM	0.93	> 2000 nM	0.945	> 16000 nM	0.991	> 512 nM
MHH-PREB-1 (B-cell leukaemia, suspension)	0.656	2570 nM	0.651	1590 nM	0.988	> 100 nM	0.965	> 2000 nM	0.919	> 16000 nM	0.96	> 512 nM
COR-L88 (small cell lung carcinoma, adherent)	0.345	340 nM	0.955	> 10200 nM	0.984	> 100 nM	0.98	> 2000 nM	0.984	> 16000 nM	0.964	> 512 nM
SK-PN-DW (Ewing sarcoma, adherent)	0.153	79.9 nM	0.922	> 10200 nM	0.976	> 100 nM	0.881	> 2000 nM	0.958	> 16000 nM	0.85	410 nM
NCI-H1836 (small cell lung carcinoma, suspension)	0.576	1650 nM	0.962	> 10200 nM	0.986	> 100 nM	0.988	> 2000 nM	0.962	> 16000 nM	0.983	> 512 nM
ST486 (Burkitt lymphoma, suspension)	0.386	505 nM	0.779	3690 nM	0.989	> 100 nM	0.813	930 nM	0.81	7280 nM	0.861	356 nM
